Values joined by “and” are separate entries in the source; they are usually repeats but may differ in a detail not shown here. Equal entries are not always repeated. About 6,900 (2%) of roughly 340,000 compounds were called active. Rule as the data show it: active = inhibition above about 30%; inactive = below that, where a call was filed. The list shows a part of the results, in another mix than the full data. The source gives no active or inactive call for entries shown without one.

UniProt P14416, sequence (P14416 whole entry, looked up): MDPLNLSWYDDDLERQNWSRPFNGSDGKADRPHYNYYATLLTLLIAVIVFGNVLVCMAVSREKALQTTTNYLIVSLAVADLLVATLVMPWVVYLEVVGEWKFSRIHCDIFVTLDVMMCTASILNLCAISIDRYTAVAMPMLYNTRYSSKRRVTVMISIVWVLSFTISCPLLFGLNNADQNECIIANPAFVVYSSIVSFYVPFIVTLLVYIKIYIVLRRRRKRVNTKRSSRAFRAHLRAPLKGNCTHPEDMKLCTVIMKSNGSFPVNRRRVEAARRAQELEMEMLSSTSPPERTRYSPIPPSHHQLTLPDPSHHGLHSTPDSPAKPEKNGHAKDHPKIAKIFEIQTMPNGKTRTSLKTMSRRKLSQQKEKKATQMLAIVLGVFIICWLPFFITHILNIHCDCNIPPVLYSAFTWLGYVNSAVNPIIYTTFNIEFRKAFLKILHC

This experiment addresses D(2) dopamine receptor (Homo sapiens) (UniProt P14416). The experiment is described as follows: HTS Assay for Allosteric Antagonists of the Human D2 Dopamine Receptor: Primary Screen for Antagonists. Also: 0% is about no effect. The following applies: HEK293 TREx D2 cells, calcium flux, dopamine EC80; at 10 µM; stronger effect = higher value. The essentials:
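Antagonism is scored as inhibition of an EC80 dopamine-evoked calcium signal in a force-coupled, tetracycline-inducible HEK293 T-REx D2 line, with compound present 180 s before agonist.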
In general terms: Calcium flux is commonly read through the fluorescence of an indicator in the cells.
In the case of `CN(C)c1ccc(/C=C/c2nc(-c3ccccc3O)n(-c3ccccc3)n2)cc1`, the inhibition was -10.9%.

For the molecule `COc1ccc(NC(=O)[C@H]2O[C@@H]3OC(C)(C)O[C@@H]3[C@H]3OC(C)(C)O[C@H]32)c(OC)c1`, the inhibition was found to be 3.07%.

`Cc1ccc2c(c1)c1c(c(=O)n(-c3cccc(Cl)c3)c(=O)n1CC(=O)NCC1CCCO1)n2C` (stereo not given): the inhibition worked out at 2.37%.

On to `CCOC(=O)C1CCCN(c2nc3c(S(=O)(=O)c4ccc(CC)cc4)nnn3c3ccsc23)C1` (stereo not given), for which the inhibition was -2.09%.

On to `COc1ccc(NC(=O)C2CC(=O)N(c3cccc(C)c3C)C2)cc1` (stereo not given), for which the inhibition was active: 31.1%.

Regarding `Cc1ccccc1Oc1nc2ccccn2c(=O)c1/C=C(\C#N)c1nc2ccccc2[nH]1`, the inhibition was -0.0085%.

In the case of `CCc1cccc(C)c1NC(=O)c1cc(S(=O)(=O)N(Cc2ccc(C(=O)OC)cc2)Cc2ccc(OC)c(OC)c2)ccc1F`, the inhibition was -14.3%.

Regarding `CCC(CC)C(=O)Nc1ccc2nc(SCC(=O)N3CCCC3)sc2c1`, the inhibition stood at 28.4%.

As for `COc1ccc(NC(=O)CN2C(=O)CC(c3ccc(C)c(C)c3)=Nc3ccccc32)cc1OC`, the inhibition was found to be 6.15%.

Turning to `COc1ccc(Cc2nc3ccc(C(=O)NCc4ccccc4C)cc3o2)cc1`, the inhibition is 10.2%.

As to `CCN(CC)CCNC(=O)Cn1ncc2c3ccccc3n(Cc3ccc(Cl)cc3)c2c1=O`, the inhibition is -3.21%.

Consider `Cc1ccc(-c2csc(-c3nc(-c4ccc(Br)s4)cs3)n2)cc1`, for which the inhibition is -27.8%.

In the case of `COc1ccc(NC(=O)Cn2nnc(C(=O)NCc3cccs3)c2N)cc1`, the inhibition came to 14.4%.

In the case of `Cc1ccc(NC(=O)CSc2nc(=O)n(Cc3cccnc3)c3c2CCC3)cc1F`, the inhibition was found to be 21.7%.

`Cc1c(Cl)cccc1NC(=O)CN1CCN(CCO)CC1`: the inhibition is active: 31.3%.

As for `CC(C)(C)C1CCc2c(sc(NC(=O)c3cc4ccccc4c(=O)o3)c2C(N)=O)C1` (stereo not given), the inhibition was -10.4%.

With `COc1ccc(C2=NN(C(=O)CSc3nc(=O)n4cccc(C)c4n3)C(c3ccc(C)cc3)C2)cc1` (stereo not given), the inhibition is active: 34.4%.

With `Cc1ccc(C)c(NC(=O)Cn2c(=O)n(CCC(C)C)c(=O)c3cccnc32)c1`, the inhibition is -11.6%.

With `COc1ccccc1NC(=O)Cn1cc(S(=O)(=O)Cc2ccccc2)c2ccccc21`, the inhibition is -0.157%.

For the molecule `CCCCCOc1ccc(/C=C/C(=O)Nc2sc(C)c(C)c2C(=O)OCC)cc1OC`, the inhibition stood at 6.26%.

Take `Cc1ccc(C)c(NC(=O)CN(C)S(=O)(=O)c2cccc3nsnc23)c1`: the inhibition was -6.46%.

Regarding `CCN(CC)c1nc2ccccc2nc1C(=O)Nc1ccc(C(C)=O)cc1`, the inhibition is 1.62%.

As to `Cc1ccc(-n2nc(C(=O)Nc3ccc(F)cc3F)c3c4ccccc4n(C)c3c2=O)cc1`, the inhibition worked out at 10.8%.

As for `Cc1cccc(N(C)c2nc3ccc(C(=O)c4ccccc4)cc3n3c(C)nnc23)c1`, the inhibition is -19.2%.

On to `COc1ccc(NC(=O)c2ccc(-n3cccn3)c([N+](=O)[O-])c2)cc1`, for which the inhibition is active: 44.6%.

Regarding `Cc1c(C)c2ccc(OCC(=O)Nc3ccccn3)cc2oc1=O`, the inhibition is active: 35.9%.

As for `CC1CCN(c2nn3c(=O)c(C(=O)NCCCOC(C)C)cnc3s2)CC1`, the inhibition was determined as 6.81%.

As for `Cc1c(C(=O)OCc2ccccc2)[nH]c2c1C(=O)CC(c1ccc(C(C)(C)C)cc1)C2` (stereo not given), the inhibition was -10.8%.

Regarding `CCc1cccc(NC(=O)c2cc3c(=O)n(Cc4ccccc4)ccc3nc2C)c1`, the inhibition worked out at 14.6%.

Take `CC(C)c1ccc(NC(=O)C2CCN(C(=O)c3ccc(F)cc3)CC2)cc1`: the inhibition was -15%.

As to `COc1cc(C(=O)Nc2ccccc2-c2nc(-c3ccccc3)no2)cc(OC)c1OC`, the inhibition is -12.8%.

For `Cc1ccc(CN2CCCn3nc(C(=O)NCCc4ccccc4C)cc3C2=O)cc1`, the inhibition turned out to be 7.44%.

`OCCN(Cc1ccccc1)CC1CC2C=CC1C2` (stereo not given): the inhibition is active: 37.1%.

In the case of `Cc1ccc(-c2nc(C)c(CCNC(=O)c3cccs3)s2)cc1`, the inhibition is 25.8%.

As for `CC(=O)c1cccc(NC(=O)C2CCN(S(=O)(=O)c3ccc4c(c3)CCCN4C(C)=O)CC2)c1`, the inhibition was 5.84%.

Take `c1ccc(-c2ncc(CN3CCN(c4ccccn4)CC3)[nH]2)cc1`: the inhibition is active: 88.7%.

Take `Cc1ccc(-n2c(C)cc(C(=O)C(=O)Nc3ccccc3)c2C)c(C)c1`: the inhibition stood at 10.5%.

As for `CC(CCc1ccccc1)NCC#N` (stereo not given), the inhibition is active: 33.6%.

As to `CC(=O)Nc1nc2n(n1)C(c1ccc(F)cc1)C=C(c1ccc(Cl)cc1)N2` (stereo not given), the inhibition is 4.82%.

With `CC(C(=O)NCCSCc1cccc(Cl)c1)N(c1ccccc1)S(C)(=O)=O` (stereo not given), the inhibition was 0.622%.

Take `COc1ccc(CCNC(=O)CCn2c(=O)c3ccccc3n(Cc3ccccc3F)c2=O)cc1OC`: the inhibition was -21.7%.

For `Cc1cccc(C(=O)OCC(=O)N2CCCCCC2)c1`, the inhibition is active: 30.7%.

`Cc1cccc(C(=O)OCc2cc(=O)n3ccsc3n2)c1`: the inhibition is -10.6%.

In the case of `COc1ccc(Cn2ccc3nc(C)c(C(=O)Nc4ccc(OC)cc4)cc3c2=O)cc1`, the inhibition is 2.8%.

As for `COc1ccc(CNC(=O)C2CCN(S(=O)(=O)c3c(C)noc3/C=C/c3ccccc3F)CC2)cc1`, the inhibition is -0.531%.

Take `COC(=O)Nc1ncc(CN2CCC(c3ccccc3)CC2)s1`: the inhibition was active: 98.1%.

With `Cc1cc(C)c(NC(=O)Cn2c(=O)c3cccn3c3ccccc32)c(C)c1`, the inhibition came to 7.83%.

Consider `COc1cccc(-n2ccnc2SCC(=O)Nc2c(C)cc(C)cc2C)c1`, for which the inhibition came to 8.87%.

For `CCSc1ncc(Cl)c(C(=O)N2CCN(c3ccccc3OC)CC2)n1`, the inhibition was determined as 13.5%.

As to `Cc1cccc(OCC(=O)Nc2cccc(OCc3cc(=O)n4cccc(C)c4n3)c2)c1`, the inhibition is 5.83%.

As to `O=C(/C=C/c1ccccc1)Nc1cc(-c2nc3cc(Cl)ccc3o2)ccc1Cl`, the inhibition was -6.42%.

With `Cc1cc2nc(-c3cccc(NC(=O)c4cccc5ccccc45)c3)oc2cc1C`, the inhibition was determined as 3.35%.

Consider `CCOc1ccc(N2CC(NC(=O)c3ccco3)CC2=O)cc1` (stereo not given), for which the inhibition stood at 16.1%.

For `CC1CCCN(C(=O)c2cc3ccc4cccnc4c3[nH]2)C1` (stereo not given), the inhibition came out at 1.59%.

As for `CCc1nc2ccc(C(=O)NCCc3ccccc3OC)cc2nc1CC`, the inhibition worked out at 13.7%.

Regarding `CCCCN1CC(c2nc3ccccc3n2CCCCOc2cc(C)ccc2C)CC1=O` (stereo not given), the inhibition turned out to be 0.694%.

For `O=C(CS(=O)(=O)c1cccc2nsnc12)Nc1ccccc1Cl`, the inhibition is 13.9%.

Consider `CC1CCN(CCc2nc3cc(NS(=O)(=O)c4ccc(F)cc4)ccc3n2C)CC1`, for which the inhibition is active: 35.6%.

Take `COc1ccc(N(Cc2cc3ccccc3[nH]c2=O)C(=O)c2cccc(Cl)c2)cc1`: the inhibition amounted to 1.93%.

As for `CCOC(=O)Cc1ccc(NC(=O)NCc2c(-n3cccc3)sc3c2CCCC3)cc1`, the inhibition was found to be 10.9%.

Take `Cc1ccc(NC(=O)c2c(C)cc(C)nc2SCC(=O)Nc2ccc(Br)cc2)cc1`: the inhibition was -3.06%.

In the case of `COc1ccc(/C=C/C(=O)Nc2cc(C(F)(F)F)ccc2Cl)cc1`, the inhibition was active: 32%.

On to `COc1cc(C(=O)NCC(c2ccc3c(c2)OCO3)N2CCOCC2)cc(OC)c1OC` (stereo not given), for which the inhibition is -3.78%.

With `CCCC(O)c1nc2ccccc2n1CCCOc1ccc(Cl)cc1` (stereo not given), the inhibition was -7.62%.

`CCc1cccc(NC(=O)C2CCCN(c3ncnc4onc(-c5ccc(F)cc5)c34)C2)c1` (stereo not given): the inhibition was 10.7%.

For the molecule `CCN1CCSc2ccc(C(=O)NCc3ccc(OC(C)C)cc3)cc21`, the inhibition was 18.1% and active: 59.7%.

For `COc1ccc(-c2noc(CSCC(=O)Nc3cc(OC)c(OC)c(OC)c3)n2)cc1OC`, the inhibition came to 0.154%.

On to `CCOc1ccc(-c2cc3c(=O)n(CC(=O)NCc4ccc(C)cc4)ccn3n2)cc1`, for which the inhibition came out at 5.14%.

With `CCc1ccc(C2CC(c3ccccc3)n3ncnc3N2)cc1` (stereo not given), the inhibition was active: 42.1%.

As to `O=C(c1ccc(N2CCC3(CC2)OCCO3)c([N+](=O)[O-])c1)N1CCOCC1`, the inhibition was active: 31.2%.

As for `CN(C(=O)CCc1nc(-c2ccccc2F)no1)c1ccc(Cl)cc1`, the inhibition was 19.6%.

For the molecule `O=S(=O)(c1ccc(OC(F)(F)F)cc1)N1CCC(c2nnnn2-c2ccc(F)cc2)CC1`, the inhibition was found to be 1.91%.

Take `COc1cccc(NS(=O)(=O)c2ccc3c(c2)n(C)c(=O)n3C)c1`: the inhibition stood at 14.6%.

For the molecule `COc1ccc(NC(=O)COCc2cc(-c3ccc4c(c3)OCO4)on2)cc1`, the inhibition was -1.65%.

On to `CN(C(=O)c1ccc2c(c1)N(Cc1cccc(Cl)c1)C(=O)c1ccccc1S2(=O)=O)C1CCCCC1`, for which the inhibition was 0.0671%.

For `COCCNC(=O)c1cnc2sc(N3CCCCC3)nn2c1=O`, the inhibition is 0.144%.

Consider `Cc1ccc(Cn2c(SCc3ccc(C(=O)NC4CCCCC4)cc3)nc3ccncc32)cc1`, for which the inhibition was -7.47%.

On to `CSc1cccc(NC(=O)C2CCN(c3nc4ccccc4[nH]3)CC2)c1`, for which the inhibition was -7.87%.

As for `COc1ccc(Cl)c2sc(NC(=O)c3ccc(S(=O)(=O)N4CCOCC4)cc3)nc12`, the inhibition is -13.4%.

Turning to `CCc1ccc(NC(=O)Cn2c(=O)n(-c3ccc(Cl)c(Cl)c3)c(=O)c3c(C)c(C)sc32)cc1`, the inhibition is -3.52%.

Regarding `CC1CC(C)CN(CCCNC(=O)c2ccc3c(c2)NC(=O)CS3)C1` (stereo not given), the inhibition is active: 47.7%.

In the case of `Cc1c(-c2nc(-c3ccccc3)no2)nnn1-c1ccc(F)c(Cl)c1`, the inhibition was determined as 0.165%.

Consider `Cc1ccc(CN2CCC(CNC(=O)c3cnn(-c4ccccc4Cl)c3C3CCN(C(=O)OC(C)(C)C)CC3)CC2)cc1`, for which the inhibition is -13.3%.

As for `COc1ccc(NC(=O)N(C2CCCCC2)C2CCN(C(C)C)CC2)c(OC)c1`, the inhibition was active: 49.9%.

As for `COc1cc(/C=C/c2nc(C#N)c(N3CCN(C)CC3)o2)cc(OC)c1OC`, the inhibition is -4.62%.

For `Cc1c(C(=O)N(Cc2ccccc2F)C2CCS(=O)(=O)C2)oc2ccccc12` (stereo not given), the inhibition came to 6.03%.

For the molecule `CCOc1ccc(C(=O)c2cn(CC(=O)Nc3ccc(Cl)cc3)c3cc4c(cc3c2=O)OCO4)cc1`, the inhibition was found to be 21.4%.

Take `COc1ccc(S(=O)(=O)NCC(c2cccs2)S(=O)(=O)c2ccccc2)cc1OC` (stereo not given): the inhibition is -19.9%.

With `COc1ccc(-c2nnc(SCC(=O)Nc3cccc(C(F)(F)F)c3)s2)cc1`, the inhibition turned out to be 16.5%.

As to `CC(=O)N1CCc2cc(Br)cc(S(=O)(=O)CCC(=O)N3CCN(c4ccc(F)cc4)CC3)c21`, the inhibition came to 10.1%.

On to `COc1ccc(NC(=O)c2c(NCc3cccs3)sc3c2CCC(C)C3)c(OC)c1` (stereo not given), for which the inhibition is -1.33%.

Take `CCOC(=O)N1CCC(NC(=O)CCCN2C(=O)CSc3ncccc32)CC1`: the inhibition was active: 31.7%.

As to `CCCCN(C)C(=O)c1cccc(OC2CCN(CC(C)(C)C)CC2)c1`, the inhibition is active: 66.8%.

As to `O=C(CSc1nnc(-c2ccccc2Cl)o1)N1CCCc2ccccc21`, the inhibition is -8.64%.

`Cc1oc(-c2ccc(Cl)cc2)nc1CN1CCCC(C(=O)NCCc2ccc(Cl)cc2)C1` (stereo not given): the inhibition was -1.02%.

As usually defined, the inhibition is the relative decrease from the control value, in per cent.

The record behind these values is PubChem BioAssay AID485344 (National Center for Advancing Translational Sciences (NCATS), 2010).
